# Test results reported in the supplement of paper PMC12217912.
# The other results are listed elsewhere or left out. The full chains were built here from the parent and the listed change. Inactive controls read about 0.05.
# B1: TEV protease; numbered along this chain (parent)
# chain: MGESLFKGPRDYNPISSSICHLTNESDGHTTSLYGIGFGPFIITNKHLFRRNNGTLVVQSLHGVFKVKDTTTLQQHLVDGRDMIIIRMPKDFPPFPQKLKFREPQREERICLVTTNFQTKSMSSMVSDTSCTFPSGDGIFWKHWIQTKDGQCGSPLVSTRDGFIVGIHSASNFTNTNNYFTSVPKNFMELLTNQEAQQWVSGWRLNADSVLWGGHKVFMVKPEEPFQPVKEATQL
# Variants of: B1
# Assay: raw area under fraction-flipped curve 0-4 h after induction (AUC4h, not background-subtracted), DNA-recorder readout of cleavage of the substrate (dimensionless); higher = more cleavage of the substrate by the protease variant
# Conditions: temperature: 34 °C; time window: 0-4 h after rhamnose induction
# Experimental: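 In vivo DNA recorder in E. coli TOP10(DE3) ΔrhaA at 34 °C. Each TEVp single-site mutant (parent TEVp 0) is paired with a single-site variant of the 7-mer TEVs (canonical ENLYFQ|S). The substrate sits between flexible linkers in a Bxb1-sfGFP-TEVs-SsrA fusion, so cleavage stabilises Bxb1 and speeds flipping of a recombination array, read by NGS. The value is the raw area under the fraction-flipped curve over 0-4 h after rhamnose induction (AUC4h), with ≥20 reads per time point. It is not background-subtracted; inactive controls average about 0.047.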
# 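Note: Bxb1 expression induced with 0.2% (w/v) L-rhamnose at OD600 near 0.5, cultures sampled hourly, flipped fraction per protease–substrate barcode pair counted by paired-end Illumina sequencing.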
variant,measurement,value
MGESLFKGPRDYNPISSSICHLTNESDGHTTSLYGIGFGPFIITNKHLFRRNNGTLVVQSLHGVFKVKDTTTLQQHLVDGRDMIIIRMPKDFPPFPQKLKFREPQREERICLVTTNFQTKSMSSMVSDTSCTFPSGDGIFWKHWIQTKDGQCGSPLVSTRDGFIVGIHSAVNFTNTNNYFTSVPKNFMELLTNQEAQQWVSGWRLNADSVLWGGHKVFMVKPEEPFQPVKEATQL [S171V],area with substrate ENLYCQS,0.0951
same,area with substrate ENLYEQS,0.0691
same,area with substrate ENLYHQS,0.0701
same,area with substrate ENLYIQS,0.08
same,area with substrate ENLYKQS,0.0679
same,area with substrate ENLYMQS,0.0152
same,area with substrate ENLYNQS,0.0337
same,area with substrate ENLYPQS,0.0639
same,area with substrate ENLYRQS,0.0635
same,area with substrate ENLYSQS,0.0926
same,area with substrate ENLYVQS,0.0522
same,area with substrate ENLYWQS,0.0407
same,area with substrate ENLYYQS,0.0555
MGESLFKGPRDYNPISSSICHLTNESDGHTTSLYGIGFGPFIITNKHLFRRNNGTLVVQSLHGVFKVKDTTTLQQHLVDGRDMIIIRMPKDFPPFPQKLKFREPQREERICLVTTNFQTKSMSSMVSDTSCTFPSGDGIFWKHWIQTKDGQCGSPLVSTRDGFIVGIHSASNFTNTNNYFTSVPKNFMELLTNQEAQQWVSGWRLNADSVLWGGHKVFMVKPEEPFQPVKQATQL [E231Q],area with substrate ENLYCQS,0.0821
same,area with substrate ENLYDQS,0.0677
same,area with substrate ENLYEQS,0.109
same,area with substrate ENLYGQS,0.0651
same,area with substrate ENLYHQS,0.0693
same,area with substrate ENLYKQS,0.059
same,area with substrate ENLYPQS,0.0682
same,area with substrate ENLYQQS,0.0717
MGESLFKGPRDYNPISSSICHLTNESDGHTTSLYGIGFGPFIITNKHLFRRNNGTLVVQSLHGVFKVKDTTTLQQHLVDGRDMIIIRMPKDFPPFPQKLKFREPQREERICLVTTNFQTKSMSSEVSDTSCTFPSGDGIFWKHWIQTKDGQCGSPLVSTRDGFIVGIHSASNFTNTNNYFTSVPKNFMELLTNQEAQQWVSGWRLNADSVLWGGHKVFMVKPEEPFQPVKEATQL [M125E],area with substrate ENLYCQS,0.058
same,area with substrate ENLYDQS,0.0698
same,area with substrate ENLYEQS,0.0622
same,area with substrate ENLYHQS,0.0513
same,area with substrate ENLYNQS,0.068
same,area with substrate ENLYPQS,0.0748
same,area with substrate ENLYQQS,0.0624
same,area with substrate ENLYRQS,0.0551
same,area with substrate ENLYSQS,0.0676
same,area with substrate ENLYTQS,0.0877
same,area with substrate ENLYVQS,0.0799
same,area with substrate ENLYWQS,0.0803
MGESLFKGPRDYNPISSSICHLTNESDGHTTSLYGIGFGPFIITNKHLFRRNNGTLVVQSLHGVFKVKDTTTLQQHLVDGRDMIIIRMPKDFPPFPQKLKFREPQREERICLVTTNFQTKSMSSMVSDTSCTFPSGDGIFWKHWIQTKDGQCGSPLVSTRDGFIVGIHSASNFTNTNNYFTSVPKNFMELLTNQEAQQWVSGWRLNADSVLWGGHKVFMVKPEEPFQPVKEARQL [T233R],area with substrate ENLYCQS,0.103
same,area with substrate ENLYEQS,0.0641
same,area with substrate ENLYGQS,0.0603
same,area with substrate ENLYHQS,0.0643
same,area with substrate ENLYIQS,0.11
same,area with substrate ENLYLQS,0.0958
same,area with substrate ENLYNQS,0.0623
same,area with substrate ENLYPQS,0.091
same,area with substrate ENLYQQS,0.0617
same,area with substrate ENLYRQS,0.0525
same,area with substrate ENLYSQS,0.0834
same,area with substrate ENLYTQS,0.0893
same,area with substrate ENLYVQS,0.135
same,area with substrate ENLYWQS,0.0988
same,area with substrate ENLYYQS,0.077
MGESLFKGPRDYNPISSSICHLTNESDGHTTSLYGIGFGPFIITNKHLFRRNNGTLVVQSLHGVFKVKDTTTLQQHLVDGRDMIIIRMPKDFPPFPQKLKFREPQREERICLVTTNFQTKSMSSMVSDTSCTFPSGDGIFWKHWIQTKDGQCGSPLVSTRRGFIVGIHSASNFTNTNNYFTSVPKNFMELLTNQEAQQWVSGWRLNADSVLWGGHKVFMVKPEEPFQPVKEATQL [D161R],area with substrate ENLYCQS,0.0641
same,area with substrate ENLYDQS,0.0538
same,area with substrate ENLYEQS,0.0599
same,area with substrate ENLYGQS,0.0553
same,area with substrate ENLYHQS,0.0531
same,area with substrate ENLYIQS,0.0844
same,area with substrate ENLYKQS,0.0172
same,area with substrate ENLYLQS,0.0511
same,area with substrate ENLYMQS,0.0532
same,area with substrate ENLYNQS,0.0563
same,area with substrate ENLYPQS,0.0515
same,area with substrate ENLYQQS,0.0582
same,area with substrate ENLYRQS,0.0485
same,area with substrate ENLYSQS,0.063
same,area with substrate ENLYTQS,0.0578
same,area with substrate ENLYVQS,0.0668
same,area with substrate ENLYWQS,0.0665
same,area with substrate ENLYYQS,0.0374
MGESLFKGPRDYNPISSSICHLTNESDGHTTSLYGIGFGPFIITNKHLFRRNNGTLVVQSLHGVFKVKDTTTLQQHLVDGRDMIIIRMPKDFPPFPQKLKFREPQRGERICLVTTNFQTKSMSSMVSDTSCTFPSGDGIFWKHWIQTKDGQCGSPLVSTRDGFIVGIHSASNFTNTNNYFTSVPKNFMELLTNQEAQQWVSGWRLNADSVLWGGHKVFMVKPEEPFQPVKEATQL [E107G],area with substrate ENLYCQS,0.0764
same,area with substrate ENLYDQS,0.07
same,area with substrate ENLYEQS,0.035
same,area with substrate ENLYGQS,0.0599
same,area with substrate ENLYHQS,0.0735
same,area with substrate ENLYKQS,0.0543
same,area with substrate ENLYLQS,0.108
same,area with substrate ENLYMQS,0.0911
same,area with substrate ENLYNQS,0.0795
same,area with substrate ENLYPQS,0.0646
same,area with substrate ENLYRQS,0.0662
same,area with substrate ENLYVQS,0.067
same,area with substrate ENLYWQS,0.0956
MGESLFKGPRDYNPISSSICHLTNESDGHTTSLYGIGFGPFIITNKHLFRRNNGTLVVQSLHGVFKVKDTTTLQQHLVDGRDMIIIRMPKDFPPFPQKLKFREPQREERICLVTTNFQTKSMSSMVSDTSCTFPSGDGIFWKHWIQTKDGQCGSPLVSTRDGFIVGIHSASNFTNTNNYFTSVPKNFMELLTNQEAQQWVSGWRLNADSVLWGGHKVFGVKPEEPFQPVKEATQL [M219G],area with substrate ENLYCQS,0.0841
same,area with substrate ENLYDQS,0.0609
same,area with substrate ENLYEQS,0.0674
same,area with substrate ENLYHQS,0.0674
same,area with substrate ENLYIQS,0.067
same,area with substrate ENLYKQS,0.0529
same,area with substrate ENLYLQS,0.0687
same,area with substrate ENLYMQS,0.0741
same,area with substrate ENLYNQS,0.0614
same,area with substrate ENLYPQS,0.0624
same,area with substrate ENLYQQS,0.0745
same,area with substrate ENLYRQS,0.0633
same,area with substrate ENLYSQS,0.0656
same,area with substrate ENLYTQS,0.0621
same,area with substrate ENLYVQS,0.0646
same,area with substrate ENLYWQS,0.0823
same,area with substrate ENLYYQS,0.0604
MGESLFKGPRDYNPISSSICHLTNESDGHTTSLYGIGFGPFIITNKHLFRRNNGTLVVQSLWGVFKVKDTTTLQQHLVDGRDMIIIRMPKDFPPFPQKLKFREPQREERICLVTTNFQTKSMSSMVSDTSCTFPSGDGIFWKHWIQTKDGQCGSPLVSTRDGFIVGIHSASNFTNTNNYFTSVPKNFMELLTNQEAQQWVSGWRLNADSVLWGGHKVFMVKPEEPFQPVKEATQL [H62W],area with substrate ENLYCQS,0.0835
same,area with substrate ENLYEQS,0.0637
same,area with substrate ENLYGQS,0.0587
same,area with substrate ENLYHQS,0.068
same,area with substrate ENLYIQS,0.107
same,area with substrate ENLYKQS,0.048
same,area with substrate ENLYNQS,0.0562
same,area with substrate ENLYPQS,0.0406
same,area with substrate ENLYQQS,0.0198
same,area with substrate ENLYRQS,0.0634
same,area with substrate ENLYTQS,0.0718
same,area with substrate ENLYVQS,0.0981
same,area with substrate ENLYWQS,0.0822
same,area with substrate ENLYYQS,0.0748
MGESLFKGPRDYNPISSWICHLTNESDGHTTSLYGIGFGPFIITNKHLFRRNNGTLVVQSLHGVFKVKDTTTLQQHLVDGRDMIIIRMPKDFPPFPQKLKFREPQREERICLVTTNFQTKSMSSMVSDTSCTFPSGDGIFWKHWIQTKDGQCGSPLVSTRDGFIVGIHSASNFTNTNNYFTSVPKNFMELLTNQEAQQWVSGWRLNADSVLWGGHKVFMVKPEEPFQPVKEATQL [S18W],area with substrate ENLYCQS,0.0752
same,area with substrate ENLYEQS,0.0662
same,area with substrate ENLYGQS,0.0549
same,area with substrate ENLYHQS,0.0797
same,area with substrate ENLYIQS,0.0839
same,area with substrate ENLYKQS,0.0632
same,area with substrate ENLYPQS,0.0827
same,area with substrate ENLYQQS,0.0531
same,area with substrate ENLYRQS,0.0643
same,area with substrate ENLYVQS,0.0871
same,area with substrate ENLYWQS,0.0776
